# Laboratory results published in the supplement of paper PMC9446081.
# Among all 39,000 compounds or so, about 220 (0.56%) showed activity. This is one part of the list.
# Tested on: Escherichia coli K-12 BW25113
# Experiment: relative growth (OD600 normalised to plate interquartile mean) (fraction); higher = less growth inhibition, active = 0.2 or less
# Conditions: 50 µM; LB; incubation time: overnight (16-24 h)
# 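Note: static incubation at 37 °C against the wild-type strain, values averaged over two biological replicates.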
row,SMILES,relative growth
1,Cn1cnc(CCNC(=O)C[C@@H]2CC[C@H]3[C@@H](COC[C@H](O)CN3C(=O)C3CC3)O2)c1,inactive: 0.992
2,CCN(CC)c1ccc2c(-c3ccc(S(=O)(=O)O)cc3S(=O)(=O)O)c3ccc(N(CC)CC)cc3[o+]c2c1,inactive: 1.09
3,Cc1noc(C)c1S(=O)(=O)Nc1ccc2c(c1)C(=O)N([C@H](C)CO)C[C@@H](C)[C@@H](CN(C)S(=O)(=O)c1ccc(Cl)cc1)O2,inactive: 0.996
4,COc1ccc(NC(=O)Nc2ccc3c(c2)C(=O)N([C@H](C)CO)C[C@H](C)[C@@H](CN(C)Cc2ccc(Cl)c(Cl)c2)O3)cc1,inactive: 0.965
5,C[C@H]1CN([C@@H](C)CO)C(=O)c2cc(NC(=O)Nc3ccccc3)ccc2O[C@@H]1CN(C)Cc1ccc(Oc2ccccc2)cc1,inactive: 0.994
6,CCCN1C[C@H](C)[C@H](OC)CN(C)C(=O)c2cc(NS(=O)(=O)c3cn(C)cn3)ccc2OC[C@H]1C,inactive: 0.943
7,C[C@]12C[C@@H](O)[C@@H]3C[C@@]1(O[C@@H]1O[C@H](CO)[C@@H](O)[C@H](O)[C@H]1O)[C@@]3(COC(=O)c1ccccc1)C(=O)O2,inactive: 1.03
8,C[C@H]1CN([C@@H](C)CO)C(=O)Cc2cc(NS(C)(=O)=O)ccc2O[C@@H]1CN(C)C(=O)Nc1ccc(F)cc1,inactive: 0.996
9,CNC(=O)CN(CCN(CCN(CC(=O)[O-])CC(=O)NC)CC(=O)[O-])CC(=O)[O-].[Gd],inactive: 1.15
10,C[C@H](NC(=O)C[C@@H]1CC[C@@H](NC(=O)CN2CCOCC2)[C@@H](CO)O1)c1ccccc1,inactive: 0.968
11,COc1ccccc1S(=O)(=O)N1C[C@@H](O)COC[C@@H]2O[C@@H](CC(=O)O)CC[C@H]21,inactive: 0.965
12,C[C@H](CO)N1C[C@H](C)[C@@H](CN(C)C(=O)Nc2ccc(F)cc2)OCCCC[C@H](C)Oc2ccc(NS(=O)(=O)c3ccc(F)cc3)cc2C1=O,inactive: 1.01
13,COCC#Cc1cnc2c(c1)C(=O)N([C@H](C)CO)C[C@H](C)[C@H](CN(C)C(=O)c1ccc3c(c1)OCO3)O2,inactive: 0.983
14,COc1ccc(CN(C)C[C@@H]2Oc3c(NC(=O)Nc4ccc(C(F)(F)F)cc4)cccc3C(=O)N([C@H](C)CO)C[C@@H]2C)cc1,inactive: 0.995
15,C[C@@H]1CN([C@@H](C)CO)C(=O)Cc2cc(NC(=O)Cc3cn(C)c4ccccc34)ccc2O[C@H]1CN(C)S(C)(=O)=O,inactive: 0.936
16,Clc1ccc(Cn2ccnc2)cc1,inactive: 0.941
17,NC1=NC(=O)[C@@H]2N=C(Br)N([C@H]3O[C@H]4COP(=O)(O)O[C@@H]4[C@@H]3O)[C@H]2N1,inactive: 1.03
18,CCN1CCN(C(=O)CN2C(=O)c3ccccc3S2(=O)=O)CC1,inactive: 0.989
19,CC(C)NC(=O)Nc1ccc2c(c1)CC(=O)N([C@H](C)CO)C[C@@H](C)[C@@H](CN(C)C(=O)NC1CCCCC1)O2,inactive: 0.953
20,CCC(=O)N1CCC[C@@H]1C(=O)O,inactive: 1.01

row,SMILES,relative growth
1,CC1c2cccc(O)c2C(=O)C2=C(O)C3(O)C(=O)C(C(N)=O)=C(O)C(N(C)C)C3C(O)C21.Cl (stereo not given),active: 0.0595
2,C[C@H](CO)N1C[C@H](C)[C@H](CN(C)C(=O)NC2CCCC2)Oc2cc(-c3cccnc3)ccc2S1(=O)=O,inactive: 0.993
3,COc1ccccc1CNC(=O)C[C@H]1C[C@H]2c3cc(NC(=O)C4CCOCC4)ccc3O[C@H]2[C@@H](CO)O1,inactive: 1
4,C[C@H]1CN([C@@H](C)CO)C(=O)Cc2cc(NC(=O)Nc3cccc4ccccc34)ccc2O[C@H]1CN(C)Cc1ccc(C(=O)Nc2ccccc2N)cc1,inactive: 1.03
5,C[C@H]1CN([C@@H](C)CO)C(=O)c2cc(NC(=O)Cn3cnnn3)ccc2O[C@@H]1CN(C)C(=O)Nc1ccc(F)cc1,inactive: 1.04
6,COc1ccc(CN(C)C[C@@H]2OCCCC[C@@H](C)Oc3ccc(NC(=O)NC(C)C)cc3C(=O)N([C@@H](C)CO)C[C@H]2C)cc1,inactive: 0.994
7,C[C@@H]1CN([C@@H](C)CO)C(=O)Cc2cc(NC(=O)Cc3ccccc3)ccc2O[C@H]1CN(C)S(=O)(=O)c1ccc(F)cc1,inactive: 1.01
8,Cc1noc(C)c1NC(=O)N(C)C[C@H]1OCCCC[C@@H](C)Oc2ccc(NS(=O)(=O)c3cccs3)cc2C(=O)N([C@@H](C)CO)C[C@H]1C,inactive: 1
9,CC(=O)NCCOc1ccc(C(=O)O)cc1,inactive: 0.924
10,COc1ccc(S(=O)(=O)N(C)C[C@@H]2Oc3c(NC(=O)NC(C)C)cccc3C(=O)N([C@@H](C)CO)C[C@H]2C)cc1,inactive: 0.992
11,C[C@H]1CN([C@@H](C)CO)S(=O)(=O)c2ccc(C#CCN(C)C)cc2O[C@@H]1CN(C)C(=O)c1ccccc1F,inactive: 0.996
12,C[C@H](CO)N1C[C@H](C)[C@@H](CN(C)C(=O)Nc2ccc(F)cc2)Oc2ccc(NC(=O)CCCCCC(=O)Nc3ccccc3N)cc2C1=O,inactive: 0.985
13,N#CC1(C#N)[C@H](c2ccccc2)[C@@H]1C(N)=O,inactive: 0.986
14,C[C@@H]1CCCCO[C@@H](CN(C)Cc2ccccc2)[C@H](C)CN([C@H](C)CO)C(=O)c2cc(NS(=O)(=O)c3ccc(Cl)cc3)ccc2O1,inactive: 1.03
15,COc1ccc(NC(=O)N(C)C[C@H]2Oc3ccc(NC(=O)Nc4cccc5ccccc45)cc3CC(=O)N([C@@H](C)CO)C[C@H]2C)cc1,inactive: 0.973
16,C[C@@H]1CCCCO[C@H](CN(C)C(=O)c2ccncc2)[C@H](C)CN([C@@H](C)CO)C(=O)c2cc(NS(=O)(=O)c3cn(C)cn3)ccc2O1,inactive: 1
17,COCC(=O)Nc1ccc2c(c1)C(=O)N(C)C[C@H](OC)[C@@H](C)CN(C(=O)Cc1cccnc1)[C@@H](C)CO2,inactive: 0.984
18,C[C@@H]1CCCCO[C@H](CN(C)S(=O)(=O)c2ccc(F)cc2)[C@@H](C)CN([C@@H](C)CO)C(=O)c2cc(NC(=O)CCC(F)(F)F)ccc2O1,inactive: 1
19,C[C@H]1CC/C=C\[C@H]2O[C@@]34C=CCN(CCN5CCOCC5)C(=O)[C@H]3N(CCCO)C(=O)[C@@H]4[C@@H]2C(=O)O1,inactive: 0.925
20,O=C(CN1CCOCC1)N[C@H]1CC[C@@H](CCn2cc(C3CCCC3)nn2)O[C@@H]1CO,inactive: 0.998

row,SMILES,relative growth
1,C[C@@H]1CN([C@@H](C)CO)C(=O)c2cccc(NC(=O)C3CC3)c2O[C@@H]1CN(C)S(=O)(=O)c1cccs1,inactive: 1.01
2,CN1C(=O)c2cc(NC(=O)c3cnccn3)ccc2OC[C@H]2O[C@H](CC(=O)NCC3CCCCC3)CC[C@H]21,inactive: 0.97
3,C[C@@H]1CN([C@@H](C)CO)C(=O)c2cccc(NC(=O)Nc3ccccc3)c2O[C@@H]1CN(C)S(C)(=O)=O,inactive: 0.996
4,C[C@@H]1CCCCO[C@@H](CN(C)Cc2ccncc2)[C@H](C)CN([C@@H](C)CO)C(=O)c2cc(NC(=O)c3ccccc3)ccc2O1,inactive: 1
5,C[C@@H]1CN([C@H](C)CO)C(=O)c2c(c3ccccc3n2C)-c2ccccc2CO[C@@H]1CN(C)Cc1cccc2c1OCCCO2,inactive: 1.03
6,C[C@@H]1CCCCO[C@@H](CN(C)C(=O)Nc2ccccc2)[C@@H](C)CN([C@@H](C)CO)C(=O)c2cc(NC(=O)c3ccccc3)ccc2O1,inactive: 1.03
7,COc1cccc(S(=O)(=O)Nc2ccc3c(c2)[C@H]2C[C@@H](CC(=O)NCc4ccccc4F)O[C@H](CO)[C@H]2O3)c1,inactive: 1.04
8,CCC1CCC(N)CC1 (stereo not given),inactive: 0.995
9,COc1ccccc1CN1C(=O)c2ccccc2[C@](Cc2ccccc2I)(C(=O)NCC(F)(F)F)[C@@H]1c1ccc(CO)cc1,inactive: 1.04
10,COc1ccccc1C#Cc1cnc2c(c1)C(=O)N([C@H](C)CO)C[C@@H](C)[C@H](CN(C)S(=O)(=O)c1cn(C)cn1)O2,inactive: 1.01
11,O=C1O[C@H](c2ccccc2)[C@H](c2ccccc2)N2[C@H]1[C@@H](C(=O)N1CCN(c3ncccn3)CC1)[C@]1(C(=O)Nc3ccc(C#CC4(O)CCCCCC4)cc31)[C@H]2c1ccc(OCCO)cc1,inactive: 1.12
12,CC(C(=O)O)c1ccc(CC2CCCC2=O)cc1 (stereo not given),inactive: 1.14
13,COC(=O)c1c2oc(c1C(=O)OC)C(=O)N[C@@H](Cc1ccccc1)Cn1cc(nn1)[C@@H](Cc1ccccc1)NC(=O)N[C@@H](CO)CC2,inactive: 0.981
14,COc1ccc(CN(C)C[C@@H]2Oc3ccc(NS(=O)(=O)c4cn(C)cn4)cc3CC(=O)N([C@@H](C)CO)C[C@@H]2C)cc1,inactive: 0.988
15,C[C@H]1CN([C@@H](C)CO)C(=O)c2cc(C3=CCCC3)cnc2O[C@H]1CN(C)C(=O)c1ccc2c(c1)OCO2,inactive: 1.01
16,C[C@@H]1CN([C@H](C)CO)C(=O)Cc2cc(NC(=O)Nc3ccccc3)ccc2O[C@H]1CN(C)Cc1ccc(Oc2ccccc2)cc1,inactive: 1.02
17,C[C@@H]1CN([C@H](C)CO)S(=O)(=O)c2ccc(-c3cccc(C#N)c3)cc2O[C@@H]1CN(C)C(=O)c1cccnc1,inactive: 1.01
18,C[C@H](CO)N1C[C@H](C)[C@@H](CN(C)S(=O)(=O)c2ccccc2C#N)OCc2cnnn2CCCC1=O,inactive: 0.98
19,COc1ccc(NC(=O)Nc2ccc3c(c2)CC(=O)N([C@@H](C)CO)C[C@@H](C)[C@@H](CN(C)C(=O)Nc2ccc(C(F)(F)F)cc2)O3)cc1,inactive: 1.03
20,C[C@@H]1CN([C@H](C)CO)C(=O)c2cc(-c3cccc(C(=O)N(C)C)c3)cnc2O[C@@H]1CN(C)S(=O)(=O)c1ccc(F)cc1,inactive: 0.972
